Test results published in a compilation of properties of binary mixtures (doi:10.1016/j.molliq.2021.118200).
Some of these densities may be calculated back from excess volumes.

Assay: xn = mol fraction of the nth substance listed
Settings: 100 kPa

CC(=O)[O-].COCCn1cc[n+](C)c1 + O
mass density [kg/m3]
Settings	288.15 K	293.15 K	298.15 K	303.15 K	308.15 K	313.15 K	318.15 K
x1 = 0.8396	1138.6	–	1131.9	1128.6	1125.2	1121.9	1118.6
x1 = 0.8663	1139	1135.7	1132.3	1129	–	1122.3	–
x1 = 0.8945	1139.4	–	1132.7	–	1126	1122.7	1119.4
x1 = 0.9225	1139.7	1136.4	1133.1	1129.8	1126.4	1123.1	1119.7
x1 = 0.9511	1140	1136.7	1133.4	1130.1	1126.7	1123.4	1120
x1 = 1	1140.5	1137.2	1134	1130.6	1127.3	1124	1120.6

CCC(=O)[O-].COCCn1cc[n+](C)c1 + O
mass density [kg/m3]
Settings	288.15 K	293.15 K	298.15 K	303.15 K	308.15 K	313.15 K	318.15 K
x1 = 0.8277	1115.3	1111.9	1108.5	1105.2	1101.8	1098.4	–
x1 = 0.8546	1115.4	1112.1	1108.7	1105.4	1102	1098.6	–
x1 = 0.8822	–	1112.2	1108.9	1105.5	1102.1	1098.8	1095.4
x1 = 0.9145	1115.7	1112.4	1109	–	–	1099	1095.6
x1 = 0.9457	–	1112.5	1109.2	1105.8	1102.5	–	1095.8
x1 = 1	–	1112.7	–	1106	1102.8	1099.5	1096.1
